How the values were obtained:
[1] = Toxicity, mock-infected MT4 CMV-EGFP cells; format: cell-based; details: human
Text: Assay 1 &2: Antiviral Activity/Toxicity
Analogously, MT4 cells are engineered with GFP and the constitutional cytomegalovirus (CMV) promotor. […] Cytotoxic investigational compounds reduce GFP levels of mock-infected MT4 CMV-EGFP cells.
The ratio of CC50 to EC50 is defined as the selectivity index (SI) and is an indication of the selectivity of the anti-HIV activity of the inhibitor. The ultimate monitoring of HIV-1 infection and cytotoxicity is done using a scanning microscope. Image analysis allows very sensitive detection of viral infection. Measurements are done before cell necrosis, which usually takes place about five days after infection, in particular measurements are performed three days after infection.
A pEC50 value corresponds to −log10(EC50). A pCC50 value corresponds to −log10(CC50).

[2] = Metabolic stability of test compounds (HLM15'); format: in vitro ADME; details: human, pH 7.4
Text: Human liver tissue is rinsed in ice-cold 0.1 M Tris-HCl (pH 7.4) buffer to wash excess blood. Tissue is then blotted dry, weighed and chopped coarsely using surgical scissors. The tissue pieces are homogenized in 3 volumes of ice-cold 0.1 M phosphate buffer (pH 7.4) using either a Potter-S (Braun, Italy) equipped with a Teflon pestle or a Sorvall Omni-Mix homogenizer, for 7×10 sec. In both cases, the vessel is kept in/on ice during the homogenization process. Tissue homogenates are centrifuged at 9000×g for 20 min at 4° C. using a Sorvall centrifuge or Beckman Ultracentrifuge. The resulting supernatant can be stored at −80° C. and is designated ‘S9’. The S9 fraction is centrifuged at 100,000×g for 60 min at 4° C. using a Beckman ultracentrifuge. The resulting supernatant is carefully aspirated, aliquoted and designated ‘cytosol’. The pellet is re-suspended in 0.1 M phosphate buffer (pH 7.4) in a final volume of 1 ml per 0.5 g original tissue weight and designated ‘microsomes’. All sub-cellular fractions are aliquoted, immediately frozen in liquid nitrogen and stored at −80° C. until use.
Heat-inactivated (10 min at 95° C.) ‘S9’ or microsomes were used for blank experiments. […] The reaction was incubated for 0 or 15 min. Next, the reaction was stopped by addition of 2 volumes of DMSO (or acetonitrile). Samples were centrifuged (10 min, 900×g) and analyzed by LC-MS.

Compound | CC50 [1] [µM] | recovery [2] [%]
C#CCNc1nc2ccc(C(=O)N(CC#C)C[C@@H](O)[C@H](Cc3ccccc3)NC(=O)OCc3cncs3)cc2o1 [Compound C42, Thiazol-5-ylmethyl (2S,3R)-4-(2-(ethynylamino)-N-(prop-2-ynyl)benzo[d]-oxazole-6-carboxamido)-3-hydroxy-1-phenylbutan-2-ylcarbamate] | 93.3 | 54
CC(C)CN(C[C@@H](O)[C@H](Cc1ccccc1)NC(=O)OCc1cncs1)C(=O)c1ccc2nc(-c3ccccc3)oc2c1 [Compound C41, Thiazol-5-ylmethyl (2S,3R)-3-hydroxy-4-(N-isobutyl-2-phenylbenzo[d]-oxazole-6-carboxamido)-1-phenylbutan-2-ylcarbamate] | 13.8 | 64
CCN(C)c1nc2ccc(C(=O)N(C)C[C@@H](O)[C@H](Cc3ccccc3)NC(=O)OCc3cncs3)cc2o1 [Compound C19, Thiazol-5-ylmethyl (2S,3R)-4-(2-(ethyl(methyl)amino)-N-methylbenzo[d]-oxazole-6-carboxamido)-3-hydroxy-1-phenylbutan-2-ylcarbamate] | > 100 | 55
C#CCN(C[C@@H](O)[C@H](Cc1ccccc1)NC(=O)OCc1cncs1)C(=O)c1ccc2nc(N3CCCC3)oc2c1 [Compound C33, Thiazol-5-ylmethyl (2S,3R)-3-hydroxy-1-phenyl-4-(N-(prop-2-ynyl)-2-(pyrrolidin-1-yl)benzo[d]oxazole-6-carboxamido)butan-2-ylcarbamate] | 61.7 | –
CNc1nc2ccc(C(=O)N(CC(C)C)C[C@@H](O)[C@H](Cc3ccccc3)NC(=O)OCc3cncs3)cc2o1 [Compound C26, Thiazol-5-ylmethyl (2S,3R)-3-hydroxy-4-(N-isobutyl-2-(methylamino)-benzo[d]oxazole-6-carboxamido)-1-phenylbutan-2-ylcarbamate] | > 100 | 49
CCN(C)c1nc2ccc(C(=O)N(C[C@@H](O)[C@H](Cc3ccccc3)NC(=O)OCc3cncs3)CC(C)(C)O)cc2o1 [Compound C34, Thiazol-5-ylmethyl (2S,3R)-4-(2-(ethyl(methyl)amino)-N-(2-hydroxy-2-methylpropyl)benzo[d]oxazole-6-carboxamido)-3-hydroxy-1-phenylbutan-2-ylcarbamate] | > 100 | –

— patent US8350048B2, “Amide compounds as boosters of antivirals” (Janssen R&D Ireland, priority 2007, dated 2013)
